Measurements from patent US10299477B2 (priority 2015, dated 2019).
Like-named read-outs stand apart in the source and are kept apart here.

What was measured:
[1] = test system: Magnaporthe grisea; assay type: in vivo; conditions: for Test A (control value class, blast on rice): in vivo
[2] = test system: Phytophthora infestans; assay type: in vivo; conditions: for Test F (control value class): 250 ppm spray; for Test F control value: 250 ppm sprayed before inoculation; for Test F (control value class, late blight on tomato): 250 ppm, sprayed 2.5 ml/pot before inoculation
[3] = Blast on rice, control value=100{1-(n/3)}
[4] = Late blight on tomato, 2.5 ml/pot, evaluated 5-10 days after inoculation
[5] = rice blast, Magnaporthe grisea, 250 ppm spray
[6] = late blight on tomato, Phytophthora infestans, 5-10 days after inoculation
[7] = Late blight on tomato, 5-10 days after inoculation
[8] = evaluated 5-10 days after inoculation

Structure (SMILES) | Test A (control value class) [1, 5] | Test F (control value class) [2, 6] | further results
COc1cc(F)c(-c2c(-c3cc(F)cc(F)c3)ccc(=O)n2C)c(F)c1 [Compound 803] |  |  | Test A (control value class) [1, 3]: H (H shows more than 50% of control values); Test F (control value class) [2, 4]: H (H shows more than 50% of control values)
Cn1c(-c2c(F)cccc2F)c(-c2cccc(F)c2F)cc(Br)c1=O [Compound 536] | H (H shows more than 50% of control values) | L (L shows 50% or less of control values) | 
Cn1c(-c2ncc(Cl)cc2Cl)c(-c2ccccc2)ccc1=O [Compound 2] |  |  | Test A control value ([1]; Blast on rice): H (H shows more than 50% of control values); Test F control value [2, 7]: L (L shows 50% or less of control values)
CCn1c(-c2c(F)cc(OC)cc2F)c(-c2cc(F)cc(F)c2F)ccc1=O [Compound 548] | H (H shows more than 50% of control values) | L (L shows 50% or less of control values) | 
Cc1cc(-c2cc(Cl)ccc2Cl)c(-c2c(F)cccc2F)n(C)c1=O [Compound 471] | H (H shows more than 50% of control values) | L (L shows 50% or less of control values) | 
Cn1c(-c2c(F)cc(F)cc2F)c(-c2cccc(F)c2Cl)ccc1=O [Compound 491] | H (H shows more than 50% of control values) | L (L shows 50% or less of control values) | 
Cn1c(-c2c(F)cccc2F)c(-c2cccc(F)c2F)cc(Cl)c1=O [Compound 537] | H (H shows more than 50% of control values) | L (L shows 50% or less of control values) | 
Cn1c(-c2c(F)cc(F)cc2F)c(-c2cccc(F)c2F)cc(Cl)c1=O [Compound 559] | H (H shows more than 50% of control values) | L (L shows 50% or less of control values) | 
CCn1c(-c2c(F)cccc2F)c(-c2cccc(F)c2F)cc(Cl)c1=O [Compound 519] | H (H shows more than 50% of control values) | L (L shows 50% or less of control values) | 
Cn1c(-c2c(F)cc(F)cc2F)c(-c2ccccc2F)cc(Br)c1=O [Compound 545] | H (H shows more than 50% of control values) | L (L shows 50% or less of control values) | 
CCn1c(-c2c(F)cccc2F)c(-c2cccc(Cl)c2)cc(Cl)c1=O [Compound 178] |  |  | Test A control value ([1]; Blast on rice): H (H shows more than 50% of control values); Test F control value [2, 7]: L (L shows 50% or less of control values)
Cn1c(-c2c(F)cc(F)cc2F)c(-c2cccc(F)c2F)cc(Br)c1=O [Compound 560] | H (H shows more than 50% of control values) | L (L shows 50% or less of control values) | 
CN1C(=O)CCC(c2ccc(F)cc2Cl)=C1c1c(F)cc(F)cc1F [Compound 574] |  |  | Test A (control value class, blast on rice) [1]: H (H shows more than 50% of control values); Test F (control value class, late blight on tomato) [2, 8]: H (H shows more than 50% of control values)
O=c1ccc(-c2cc(F)cc(F)c2Cl)c(-c2c(F)cccc2F)n1CC(F)F [Compound 555] | H (H shows more than 50% of control values) | L (L shows 50% or less of control values) | 
Cn1c(-c2c(F)cc(F)cc2F)c(-c2cc(F)cc(F)c2Cl)ccc1=O [Compound 586] |  |  | Test A (control value class, blast on rice) [1]: H (H shows more than 50% of control values); Test F (control value class, late blight on tomato) [2, 8]: L (L shows 50% or less of control values)
CN1C(=O)CCC(c2ccccc2)=C1c1ncc(Cl)cc1Cl [Compound 1] |  |  | Test A control value ([1]; Blast on rice): H (H shows more than 50% of control values); Test F control value [2, 7]: L (L shows 50% or less of control values)
Cn1c(-c2c(F)cccc2F)c(-c2c(F)cccc2Cl)cc(Cl)c1=O [Compound 405] | H (H shows more than 50% of control values) | L (L shows 50% or less of control values) | 
CCn1c(-c2c(F)cccc2F)c(-c2cccc(F)c2)cc(Br)c1=O [Compound 155] |  |  | Test A control value ([1]; Blast on rice): H (H shows more than 50% of control values); Test F control value [2, 7]: L (L shows 50% or less of control values)
CCn1c(-c2c(F)cc(F)cc2F)c(-c2cccc(O)c2Cl)cc(Cl)c1=O [Compound 806] |  |  | Test A (control value class) [1, 3]: H (H shows more than 50% of control values); Test F (control value class) [2, 4]: H (H shows more than 50% of control values)
CCn1c(-c2c(F)cccc2F)c(-c2cc(F)ccc2Cl)cc(F)c1=O [Compound 512] | H (H shows more than 50% of control values) | L (L shows 50% or less of control values) | 
CCn1c(-c2c(F)cc(OC)cc2F)c(-c2ccc(F)cc2Cl)cc(C)c1=O [Compound 599] |  |  | Test A (control value class, blast on rice) [1]: H (H shows more than 50% of control values); Test F (control value class, late blight on tomato) [2, 8]: L (L shows 50% or less of control values)
COc1cc(F)c(-c2c(-c3cc(F)cc(F)c3)cc(Br)c(=O)n2C)c(F)c1 [Compound 808] |  |  | Test A (control value class) [1, 3]: H (H shows more than 50% of control values); Test F (control value class) [2, 4]: L (L shows 50% or less of control values)
Cn1c(-c2c(F)cccc2F)c(-c2cc(F)cc(F)c2F)ccc1=O [Compound 439] | H (H shows more than 50% of control values) | L (L shows 50% or less of control values) | 
CCCn1c(-c2c(F)cccc2F)c(-c2cc(OC)ccc2Cl)ccc1=O [Compound 399] | H (H shows more than 50% of control values) | L (L shows 50% or less of control values) | 
CCn1c(-c2c(F)cc(F)cc2F)c(-c2cccc(F)c2F)cc(Br)c1=O [Compound 567] |  |  | Test A (control value class, blast on rice) [1]: H (H shows more than 50% of control values); Test F (control value class, late blight on tomato) [2, 8]: L (L shows 50% or less of control values)
COc1cc(F)c(-c2c(-c3cccc(F)c3Cl)ccc(=O)n2C)c(F)c1 [Compound 492] | H (H shows more than 50% of control values) | L (L shows 50% or less of control values) | 
CCn1c(-c2c(F)cc(OC)cc2F)c(-c2cc(F)cc(F)c2Br)ccc1=O [Compound 818] |  |  | Test A (control value class) [1, 3]: H (H shows more than 50% of control values); Test F (control value class) [2, 4]: L (L shows 50% or less of control values)
COc1ccc(Cl)c(-c2ccc(=O)n(C3CC3)c2-c2c(F)cccc2F)c1 [Compound 496] | H (H shows more than 50% of control values) | L (L shows 50% or less of control values) | 
